Measured values taken from the supplement of paper PMC10037445.
Whole data set: some 2,900 compounds, median “NF-kB SEAP reporter activity, fold change vs agonist alone” near 0.99, cut for the highest 2% near 2.6. Some of the results follow.

Legend:
[1] = test system: RAW-Dual; assay: NF-kB SEAP reporter activity, fold change vs agonist alone; higher = enhanced NF-kB activity; details: library stock concentration (final ~1000-fold dilution): 10 mM, cytotoxicity flag (confluency mask): not cytotoxic
Method in brief: (§1)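 After 50 nL of library stock was delivered by pin tool to RAW-Dual macrophages (50,000 cells/well, DMEM, 384-well plates), a PRR agonist was added 1 h later and the plates were kept at 37 °C, 5% CO2. Twenty hours later, IRF was read from supernatant by QuantiLuc luminescence and NF-κB by QuantiBlue absorbance at 620 nm. Reporter activity is stated as fold change over agonist-alone wells. Wells with IncuCyte confluency under 70% of agonist controls in both mask sets were counted as cytotoxic.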

[2] = test system: RAW-Dual; assay: NF-kB SEAP reporter activity, fold change vs agonist alone; cytotoxicity flag (confluency mask): not cytotoxic; higher = enhanced NF-kB activity
Method in brief: as §1

[3] = agonist: ODN 1826 (TLR9) 0.5 ug/mL
[4] = agonist: Pam2CSK4 (TLR2/6) 0.1 ug/mL
[5] = agonist: Pam3CSK4 (TLR2/1) 0.1 ug/mL

Which “NF-kB SEAP reporter activity” value ([1]; agonist: Imiquimod (TLR7) […]) does the source give for Cc1nn(-c2ccccc2)c(C)c1/C=N/N1CCN(Cc2ccccc2)CC1 here?
Its value is 0.964.

And the “NF-kB SEAP reporter activity” value ([1]; agonist: MPLA (TLR4) […])?
Its value is 1.08.

For Cc1nn(-c2ccccc2)c(C)c1/C=N/N1CCN(Cc2ccccc2)CC1 (library stock concentration (final ~1000-fold dilution): 10 mM), which “NF-kB SEAP reporter activity” value ([2]; agonist: LPS (TLR4) 0.1 ug/mL) is on record?
Its value is 1.23.

And the “NF-kB SEAP reporter activity” value [2, 3]?
The value was 0.972.

What about the “NF-kB SEAP reporter activity” value [2, 4] of the same compound?
Its value is 0.885.

And the “NF-kB SEAP reporter activity” value [2, 5]?
Its value is 0.968.

With O=C(/C=C/c1ccccc1)NC(NC(=S)Nc1cccc2cccnc12)C(Cl)(Cl)Cl (configuration not stated) (library stock concentration (final ~1000-fold dilution): 10 mM) as the compound, how does the “NF-kB SEAP reporter activity” value ([2]; agonist: LPS (TLR4) 0.1 ug/mL) read?
The value was 0.779.

And the “NF-kB SEAP reporter activity” value [2, 3]?
The value was 0.429.

What about the “NF-kB SEAP reporter activity” value [2, 4] of the same compound?
Its value is 0.288.

And the “NF-kB SEAP reporter activity” value [2, 5]?
Its value is 0.388.

For O=C(/C=C/c1ccccc1)NC(NC(=S)Nc1cccc2cccnc12)C(Cl)(Cl)Cl (configuration not stated), which “NF-kB SEAP reporter activity” value ([1]; agonist: Imiquimod (TLR7) […]) is on record?
The value was 0.628.

And the “NF-kB SEAP reporter activity” value ([1]; agonist: MPLA (TLR4) […])?
Its value is 0.833.

Which “NF-kB SEAP reporter activity” value ([2]; agonist: LPS (TLR4) 0.1 ug/mL) does the source give for CC(C)C(C(=O)Nc1ccc(C(=O)NO)cc1)c1ccccc1 (configuration not stated) (library stock concentration (final ~1000-fold dilution): 10 mM) here?
The value was 4.76.

And the “NF-kB SEAP reporter activity” value [2, 3]?
Its value is 0.93.

And the “NF-kB SEAP reporter activity” value [2, 4]?
The value was 1.12.

What about the “NF-kB SEAP reporter activity” value [2, 5] of the same compound?
The value was 1.15.

How did the “NF-kB SEAP reporter activity” value ([1]; agonist: Imiquimod (TLR7) […]) turn out when CC(C)C(C(=O)Nc1ccc(C(=O)NO)cc1)c1ccccc1 (configuration not stated) was run?
The value was 0.965.

And the “NF-kB SEAP reporter activity” value ([1]; agonist: MPLA (TLR4) […])?
Its value is 0.937.

Which results are given for Cl.Cl.Clc1ccc(Nc2nnc(Cc3ccncc3)c3ccccc23)cc1?
NF-kB SEAP reporter activity ([1]; agonist: Imiquimod (TLR7) […]): 0.792; NF-kB SEAP reporter activity ([1]; agonist: MPLA (TLR4) […]): 0.871

For Cl.Cl.Clc1ccc(Nc2nnc(Cc3ccncc3)c3ccccc23)cc1 (library stock concentration (final ~1000-fold dilution): 10 mM), which “NF-kB SEAP reporter activity” value ([2]; agonist: LPS (TLR4) 0.1 ug/mL) is on record?
Its value is 0.846.

What about the “NF-kB SEAP reporter activity” value [2, 3] of the same compound?
The value was 0.959.

And the “NF-kB SEAP reporter activity” value [2, 4]?
Its value is 0.625.

What about the “NF-kB SEAP reporter activity” value [2, 5] of the same compound?
The value was 0.736.

What does the source list for Fc1ccc(Cl)cc1-c1nc(Nc2ccncc2)c2nccnc2n1?
NF-kB SEAP reporter activity ([1]; agonist: Imiquimod (TLR7) […]): 0.948; NF-kB SEAP reporter activity ([1]; agonist: MPLA (TLR4) […]): 1.14

With Fc1ccc(Cl)cc1-c1nc(Nc2ccncc2)c2nccnc2n1 (library stock concentration (final ~1000-fold dilution): 10 mM) as the compound, how does the “NF-kB SEAP reporter activity” value ([2]; agonist: LPS (TLR4) 0.1 ug/mL) read?
Its value is 1.34.

And the “NF-kB SEAP reporter activity” value [2, 3]?
The value was 0.818.

What about the “NF-kB SEAP reporter activity” value [2, 4] of the same compound?
The value was 0.725.

What about the “NF-kB SEAP reporter activity” value [2, 5] of the same compound?
Its value is 0.521.

Which “NF-kB SEAP reporter activity” value ([2]; agonist: LPS (TLR4) 0.1 ug/mL) does the source give for O=C(O)COCCN1CCN(C(c2ccccc2)c2ccc(Cl)cc2)CC1 (configuration not stated) (library stock concentration (final ~1000-fold dilution): 10 mM) here?
Its value is 0.999.

What about the “NF-kB SEAP reporter activity” value [2, 3] of the same compound?
The value was 1.02.

And the “NF-kB SEAP reporter activity” value [2, 4]?
Its value is 1.11.

And the “NF-kB SEAP reporter activity” value [2, 5]?
Its value is 0.749.

With O=C(O)COCCN1CCN(C(c2ccccc2)c2ccc(Cl)cc2)CC1 (configuration not stated) as the compound, how does the “NF-kB SEAP reporter activity” value ([1]; agonist: MPLA (TLR4) […]) read?
Its value is 1.09.

Which “NF-kB SEAP reporter activity” value ([2]; agonist: LPS (TLR4) 0.1 ug/mL) does the source give for Cc1cc(C)c(-c2csc(NC(=O)c3ccccc3)n2)c(C)c1 (library stock concentration (final ~1000-fold dilution): 10 mM) here?
The value was 1.87.

What about the “NF-kB SEAP reporter activity” value [2, 3] of the same compound?
The value was 0.534.

What about the “NF-kB SEAP reporter activity” value [2, 4] of the same compound?
Its value is 0.742.

And the “NF-kB SEAP reporter activity” value [2, 5]?
The value was 0.819.

Cc1cc(C)c(-c2csc(NC(=O)c3ccccc3)n2)c(C)c1 was tested. Which “NF-kB SEAP reporter activity” value ([1]; agonist: Imiquimod (TLR7) […]) did it give?
The value was 0.838.

What about the “NF-kB SEAP reporter activity” value ([1]; agonist: MPLA (TLR4) […]) of the same compound?
The value was 0.953.

CC(C)NCC(C(=O)N1CCN(c2ncnc3c2C(C)CC3O)CC1)c1ccc(Cl)cc1 (configuration not stated) (library stock concentration (final ~1000-fold dilution): 10 mM) was tested. Which “NF-kB SEAP reporter activity” value ([2]; agonist: LPS (TLR4) 0.1 ug/mL) did it give?
Its value is 0.942.

And the “NF-kB SEAP reporter activity” value [2, 3]?
Its value is 0.996.

What about the “NF-kB SEAP reporter activity” value [2, 4] of the same compound?
The value was 1.15.

And the “NF-kB SEAP reporter activity” value [2, 5]?
The value was 1.11.

With CC(C)NCC(C(=O)N1CCN(c2ncnc3c2C(C)CC3O)CC1)c1ccc(Cl)cc1 (configuration not stated) as the compound, how does the “NF-kB SEAP reporter activity” value ([1]; agonist: Imiquimod (TLR7) […]) read?
The value was 1.27.

What about the “NF-kB SEAP reporter activity” value ([1]; agonist: MPLA (TLR4) […]) of the same compound?
The value was 1.13.
